Test results: the supplement of paper PMC8728848
This is one part of the list.

Assays:
Assay in all cases: glycan array binding signal (z-score within array); higher = stronger binding
Settings in all cases: glycan notation: IUPAC condensed, linker removed
[1] = biological target: GlcNAc(b1-2)Gal(b1-3)GalNAc
Summary of the method: (§1)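 Glycan array binding is given as a within-array Z-score, which can be read as non-binding when negative. The arrays, 3228 of them, came from the Consortium for Functional Glycomics database and were retained only where the protein sequence was available. Z-scores were averaged across arrays of the same protein sequence at different concentrations or buffers and across linkers.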

[2] = biological target: GlcNAc(b1-2)Man(a1-3)[GlcNAc(b1-2)Man(a1-6)]Man(b1-4)GlcNAc(b1-4)GlcNAc
Summary of the method: as §1

[3] = biological target: GlcNAc(b1-2)Man(a1-3)[GlcNAc(b1-2)Man(a1-6)]Man(b1-4)GlcNAc(b1-4)[Fuc(a1-6)]GlcNAc
Summary of the method: as §1

[4] = biological target: GlcNAc(b1-2)Man(a1-3)[GlcNAc(b1-4)][GlcNAc(b1-2)Man(a1-6)]Man(b1-4)GlcNAc(b1-4)GlcNAc
Summary of the method: as §1

[5] = biological target: GlcNAc(b1-2)Man(a1-3)[GlcNAc(b1-4)][GlcNAc(b1-2)Man(a1-6)]Man(b1-4)GlcNAc(b1-4)[Fuc(a1-6)]GlcNAc
Summary of the method: as §1

[6] = biological target: GlcNAc(b1-2)[GlcNAc(b1-4)]Man(a1-3)[GlcNAc(b1-2)Man(a1-6)]Man(b1-4)GlcNAc(b1-4)GlcNAc
Summary of the method: as §1

[7] = biological target: GlcNAc(b1-2)[GlcNAc(b1-4)]Man(a1-3)[GlcNAc(b1-4)][GlcNAc(b1-2)Man(a1-6)]Man(b1-4)GlcNAc(b1-4)GlcNAc
Summary of the method: as §1

[8] = biological target: GlcNAc(b1-2)[GlcNAc(b1-4)]Man(a1-3)[GlcNAc(b1-4)][GlcNAc(b1-2)[GlcNAc(b1-6)]Man(a1-6)]Man(b1-4)GlcNAc(b1-4)GlcNAc
Summary of the method: as §1

[9] = biological target: GlcNAc(b1-2)[GlcNAc(b1-4)]Man(a1-3)[GlcNAc(b1-4)][GlcNAc(b1-2)[GlcNAc(b1-6)]Man(a1-6)]Man(b1-4)GlcNAc(b1-4)[Fuc(a1-6)]GlcNAc
Summary of the method: as §1

[10] = biological target: GlcNAc(b1-2)[GlcNAc(b1-6)]Man(a1-6)[GlcNAc(b1-2)Man(a1-3)]Man(b1-4)GlcNAc(b1-4)GlcNAc
Summary of the method: as §1

[11] = biological target: GlcNAc(b1-2)[GlcNAc(b1-6)]Man(a1-6)[GlcNAc(b1-2)Man(a1-3)]Man(b1-4)GlcNAc(b1-4)[Fuc(a1-6)]GlcNAc
Summary of the method: as §1

[12] = biological target: GlcNAc(b1-2)[GlcNAc(b1-6)]Man(a1-6)[GlcNAc(b1-4)][GlcNAc(b1-2)Man(a1-3)]Man(b1-4)GlcNAc(b1-4)GlcNAc
Summary of the method: as §1

GlcNAc(b1-3)Fuc = biological target: GlcNAc(b1-3)Fuc
Summary of the method: as §1

GlcNAc(b1-3)Gal = biological target: GlcNAc(b1-3)Gal
Summary of the method: as §1

[13] = biological target: GlcNAc(b1-3)Gal(b1-3)GalNAc
Summary of the method: as §1

GlcNAc(b1-3)Gal(b1-4)Glc = biological target: GlcNAc(b1-3)Gal(b1-4)Glc
Summary of the method: as §1

[14] = biological target: GlcNAc(b1-3)Gal(b1-4)GlcNAc
Summary of the method: as §1

[15] = biological target: GlcNAc(b1-3)Gal(b1-4)GlcNAc(b1-2)Man(a1-3)[GlcNAc(b1-3)Gal(b1-4)GlcNAc(b1-2)Man(a1-6)]Man(b1-4)GlcNAc(b1-4)GlcNAc
Summary of the method: as §1

[16] = biological target: GlcNAc(b1-3)Gal(b1-4)GlcNAc(b1-2)Man(a1-3)[GlcNAc(b1-3)Gal(b1-4)GlcNAc(b1-2)Man(a1-6)]Man(b1-4)GlcNAc(b1-4)[Fuc(a1-6)]GlcNAc
Summary of the method: as §1

[17] = biological target: GlcNAc(b1-3)Gal(b1-4)GlcNAc(b1-2)[GlcNAc(b1-3)Gal(b1-4)GlcNAc(b1-6)]Man(a1-6)[GlcNAc(b1-3)Gal(b1-4)GlcNAc(b1-2)Man(a1-3)]Man(b1-4)GlcNAc(b1-4)GlcNAc
Summary of the method: as §1

[18] = biological target: GlcNAc(b1-3)Gal(b1-4)GlcNAc(b1-3)Gal(b1-4)GlcNAc
Summary of the method: as §1

[19] = biological target: GlcNAc(b1-3)Gal(b1-4)GlcNAc(b1-3)Gal(b1-4)GlcNAc(b1-2)Man(a1-3)[GlcNAc(b1-3)Gal(b1-4)GlcNAc(b1-3)Gal(b1-4)GlcNAc(b1-2)Man(a1-6)]Man(b1-4)GlcNAc(b1-4)GlcNAc
Summary of the method: as §1

[20] = biological target: GlcNAc(b1-3)Gal(b1-4)GlcNAc(b1-3)Gal(b1-4)GlcNAc(b1-2)Man(a1-3)[GlcNAc(b1-3)Gal(b1-4)GlcNAc(b1-3)Gal(b1-4)GlcNAc(b1-2)Man(a1-6)]Man(b1-4)GlcNAc(b1-4)[Fuc(a1-6)]GlcNAc
Summary of the method: as §1

[21] = biological target: GlcNAc(b1-3)Gal(b1-4)GlcNAc(b1-3)Gal(b1-4)GlcNAc(b1-2)[GlcNAc(b1-3)Gal(b1-4)GlcNAc(b1-3)Gal(b1-4)GlcNAc(b1-6)]Man(a1-6)[GlcNAc(b1-3)Gal(b1-4)GlcNAc(b1-3)Gal(b1-4)GlcNAc(b1-2)Man(a1-3)]Man(b1-4)GlcNAc(b1-4)[Fuc(a1-6)]GlcNAc
Summary of the method: as §1

[22] = biological target: GlcNAc(b1-3)Gal(b1-4)GlcNAc(b1-3)Gal(b1-4)GlcNAc(b1-3)Gal(b1-4)GlcNAc(b1-2)Man(a1-3)[GlcNAc(b1-3)Gal(b1-4)GlcNAc(b1-3)Gal(b1-4)GlcNAc(b1-3)Gal(b1-4)GlcNAc(b1-2)Man(a1-6)]Man(b1-4)GlcNAc(b1-4)GlcNAc
Summary of the method: as §1

[23] = biological target: GlcNAc(b1-3)Gal(b1-4)GlcNAc(b1-3)Gal(b1-4)GlcNAc(b1-3)Gal(b1-4)GlcNAc(b1-2)Man(a1-3)[GlcNAc(b1-3)Gal(b1-4)GlcNAc(b1-3)Gal(b1-4)GlcNAc(b1-3)Gal(b1-4)GlcNAc(b1-2)Man(a1-6)]Man(b1-4)GlcNAc(b1-4)[Fuc(a1-6)]GlcNAc
Summary of the method: as §1

[24] = biological target: GlcNAc(b1-3)Gal(b1-4)GlcNAc(b1-3)Gal(b1-4)GlcNAc(b1-3)Gal(b1-4)GlcNAc(b1-2)[GlcNAc(b1-3)Gal(b1-4)GlcNAc(b1-3)Gal(b1-4)GlcNAc(b1-3)Gal(b1-4)GlcNAc(b1-6)]Man(a1-6)[GlcNAc(b1-3)Gal(b1-4)GlcNAc(b1-3)Gal(b1-4)GlcNAc(b1-3)Gal(b1-4)GlcNAc(b1-2)Man(a1-3)]Man(b1-4)GlcNAc(b1-4)[Fuc(a1-6)]GlcNAc
Summary of the method: as §1

[25] = biological target: GlcNAc(b1-3)Gal(b1-4)GlcNAc(b1-3)Gal(b1-4)GlcNAc(b1-3)Gal(b1-4)GlcNAc(b1-3)Gal(b1-4)GlcNAc(b1-2)Man(a1-3)[GlcNAc(b1-3)Gal(b1-4)GlcNAc(b1-3)Gal(b1-4)GlcNAc(b1-3)Gal(b1-4)GlcNAc(b1-3)Gal(b1-4)GlcNAc(b1-2)Man(a1-6)]Man(b1-4)GlcNAc(b1-4)GlcNAc
Summary of the method: as §1

[26] = biological target: GlcNAc(b1-3)Gal(b1-4)GlcNAc(b1-3)Gal(b1-4)GlcNAc(b1-3)Gal(b1-4)GlcNAc(b1-3)Gal(b1-4)GlcNAc(b1-2)Man(a1-3)[GlcNAc(b1-3)Gal(b1-4)GlcNAc(b1-3)Gal(b1-4)GlcNAc(b1-3)Gal(b1-4)GlcNAc(b1-3)Gal(b1-4)GlcNAc(b1-2)Man(a1-6)]Man(b1-4)GlcNAc(b1-4)[Fuc(a1-6)]GlcNAc
Summary of the method: as §1

[27] = biological target: GlcNAc(b1-3)Gal(b1-4)GlcNAc(b1-3)Gal(b1-4)GlcNAc(b1-3)Gal(b1-4)GlcNAc(b1-3)Gal(b1-4)GlcNAc(b1-2)[GlcNAc(b1-3)Gal(b1-4)GlcNAc(b1-3)Gal(b1-4)GlcNAc(b1-3)Gal(b1-4)GlcNAc(b1-3)Gal(b1-4)GlcNAc(b1-6)]Man(a1-6)[GlcNAc(b1-3)Gal(b1-4)GlcNAc(b1-3)Gal(b1-4)GlcNAc(b1-3)Gal(b1-4)GlcNAc(b1-3)Gal(b1-4)GlcNAc(b1-2)Man(a1-3)]Man(b1-4)GlcNAc(b1-4)[Fuc(a1-6)]GlcNAc
Summary of the method: as §1

[28] = biological target: GlcNAc(b1-3)Gal(b1-4)GlcNAc(b1-3)Gal(b1-4)GlcNAc(b1-3)GalNAc
Summary of the method: as §1

[29] = biological target: GlcNAc(b1-3)Gal(b1-4)GlcNAc(b1-3)GalNAc
Summary of the method: as §1

[30] = biological target: GlcNAc(b1-3)Gal(b1-4)GlcNAc(b1-3)[GlcNAc(b1-3)Gal(b1-4)GlcNAc(b1-3)]GalNAc
Summary of the method: as §1

[31] = biological target: GlcNAc(b1-3)Gal(b1-4)GlcNAc(b1-6)[Gal(b1-3)]GalNAc
Summary of the method: as §1

[32] = biological target: GlcNAc(b1-3)Gal(b1-4)GlcNAc(b1-6)[GlcNAc(b1-3)Gal(b1-3)]GalNAc
Summary of the method: as §1

[33] = biological target: GlcNAc(b1-3)Gal(b1-4)GlcNAc(b1-6)[GlcNAc(b1-3)]Gal(b1-4)GlcNAc
Summary of the method: as §1

GlcNAc(b1-3)GalNAc = biological target: GlcNAc(b1-3)GalNAc
Summary of the method: as §1

B1: Tamarinin (protein)
chain: CDDSARAGNIVVYWGQGGSDNSEGSLKEACKSGHYNMIVLQQLIVYDDGRDPDLNLGAHCSDCTKLEEQIKYCQNKDIKILLQIGQVVPTQEDVKDVTKNLSEYLLKNFFSGKSGPLGEVYLNGIDIASVPEGNNLKFDELVEALNDSSTERRIYLSASPLCVYPDYYLNKAIQTEKLDFLFVQFFYQNPCIYTEGNPENLFEAMKTWTKNVPESMIFMALPATPNLDGYIPPRVLNKEILPAVSEASNFAGVMIFDRYFDRFRKYSSKIK
glycan array binding signal (z-score) [1]: -0.158 | glycan array binding signal (z-score) [2]: -0.317 | glycan array binding signal (z-score) [3]: -0.194 | glycan array binding signal (z-score) [4]: -0.259 | glycan array binding signal (z-score) [5]: -0.526 | glycan array binding signal (z-score) [6]: -0.413 | glycan array binding signal (z-score) [7]: -0.017 | glycan array binding signal (z-score) [8]: -0.199 | glycan array binding signal (z-score) [9]: -0.436 | glycan array binding signal (z-score) [10]: -0.264 | glycan array binding signal (z-score) [11]: 0.474 | glycan array binding signal (z-score) [12]: -0.469 | glycan array binding signal (z-score) (GlcNAc(b1-3)Fuc): -0.324 | glycan array binding signal (z-score) (GlcNAc(b1-3)Gal): -0.449 | glycan array binding signal (z-score) [13]: -0.288 | glycan array binding signal (z-score) (GlcNAc(b1-3)Gal(b1-4)Glc): -0.18 | glycan array binding signal (z-score) [14]: -0.424 | glycan array binding signal (z-score) [15]: -0.317 | glycan array binding signal (z-score) [16]: -0.176 | glycan array binding signal (z-score) [17]: -0.515 | glycan array binding signal (z-score) [18]: -0.438 | glycan array binding signal (z-score) [19]: 0.314 | glycan array binding signal (z-score) [20]: 0.122 | glycan array binding signal (z-score) [21]: 0.807 | glycan array binding signal (z-score) [22]: -0.183 | glycan array binding signal (z-score) [23]: 0.078 | glycan array binding signal (z-score) [24]: 0.369 | glycan array binding signal (z-score) [25]: -0.181 | glycan array binding signal (z-score) [26]: -0.061 | glycan array binding signal (z-score) [27]: -0.28 | glycan array binding signal (z-score) [28]: -0.388 | glycan array binding signal (z-score) [29]: -0.411 | glycan array binding signal (z-score) [30]: -0.332 | glycan array binding signal (z-score) [31]: -0.358 | glycan array binding signal (z-score) [32]: -0.102 | glycan array binding signal (z-score) [33]: -0.274 | glycan array binding signal (z-score) (GlcNAc(b1-3)GalNAc): -0.342
